In publication PMC4336329 (PLoS ONE, 2015):
Hit rate of the full screen: of about 310,000 compounds, about 2,200 (0.71%) showed an effect of 50% or more. Effects have a minus sign here. The list shows a part of the results.

The molecules below were run against human ether-à-go-go-related gene (hERG) potassium channel (human, UniProt Q12809) (assay: primary screen, population patch clamp on CHO cells stably expressing hERG).
Chain of human ether-à-go-go-related gene (hERG) potassium channel (Q12809 whole entry, looked up): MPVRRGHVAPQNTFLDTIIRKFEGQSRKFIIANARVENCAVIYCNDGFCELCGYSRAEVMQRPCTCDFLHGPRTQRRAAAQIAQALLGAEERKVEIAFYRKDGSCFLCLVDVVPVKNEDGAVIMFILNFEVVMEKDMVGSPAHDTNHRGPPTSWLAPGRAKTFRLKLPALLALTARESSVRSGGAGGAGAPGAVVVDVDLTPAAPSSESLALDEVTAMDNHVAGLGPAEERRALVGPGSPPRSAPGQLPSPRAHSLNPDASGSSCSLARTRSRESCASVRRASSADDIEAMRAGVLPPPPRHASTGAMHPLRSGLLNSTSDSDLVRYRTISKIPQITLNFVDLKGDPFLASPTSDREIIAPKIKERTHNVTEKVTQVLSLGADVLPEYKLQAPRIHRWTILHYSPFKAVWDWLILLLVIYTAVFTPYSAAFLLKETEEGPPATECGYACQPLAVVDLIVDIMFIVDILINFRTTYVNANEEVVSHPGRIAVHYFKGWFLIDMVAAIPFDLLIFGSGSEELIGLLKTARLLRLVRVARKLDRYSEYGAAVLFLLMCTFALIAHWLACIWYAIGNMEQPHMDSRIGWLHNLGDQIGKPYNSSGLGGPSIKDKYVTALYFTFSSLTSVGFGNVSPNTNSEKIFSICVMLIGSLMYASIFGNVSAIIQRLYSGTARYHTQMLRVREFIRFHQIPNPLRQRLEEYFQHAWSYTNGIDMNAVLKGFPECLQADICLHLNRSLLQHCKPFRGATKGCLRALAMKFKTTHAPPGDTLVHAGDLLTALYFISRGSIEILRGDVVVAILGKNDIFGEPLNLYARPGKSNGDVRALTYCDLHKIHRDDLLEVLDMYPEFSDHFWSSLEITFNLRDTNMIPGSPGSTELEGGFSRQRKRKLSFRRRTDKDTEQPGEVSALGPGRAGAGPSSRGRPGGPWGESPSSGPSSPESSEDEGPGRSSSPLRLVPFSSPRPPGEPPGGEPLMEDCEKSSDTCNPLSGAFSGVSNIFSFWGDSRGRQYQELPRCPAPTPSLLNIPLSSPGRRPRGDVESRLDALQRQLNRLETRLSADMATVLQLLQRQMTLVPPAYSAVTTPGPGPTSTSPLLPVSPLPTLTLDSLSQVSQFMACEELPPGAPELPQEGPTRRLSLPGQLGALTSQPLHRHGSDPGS
In the case of c1ccc(CCc2cn(C[C@H]3CC[C@@H]([C@@H]4CC[C@H](Cn5cc(CCc6ccccc6)nn5)O4)O3)nn2)cc1, the “hERG current change (%, negative = inhibition) at 1uM” value was -11.7%. For Cc1cc(C(=O)COC(=O)c2ccc[nH]c2=O)c(C)n1-c1ccccc1, the “hERG current change (%, negative = inhibition) at 1uM” value was 6.39%. With CCc1cccc(NC(=O)Cn2c(=O)n(CCC(=O)NCC3CCCO3)c(=O)c3cc(OC)c(OC)cc32)c1 (stereo not drawn) the “hERG current change (%, negative = inhibition) at 1uM” value was 5.23%. In the case of Cn1nnc2c(NCc3ccco3)nccc21, the “hERG current change (%, negative = inhibition) at 1uM” value was 2.04%. In the case of O=C(COC(=O)C1CC2C=CC1C2)NCc1ccco1 (stereo not drawn), the “hERG current change (%, negative = inhibition) at 1uM” value was 6.93%. O=C(NCc1ccccn1)C(C(=O)c1cccc([N+](=O)[O-])c1)n1cc(Cl)ccc1=O (stereo not drawn) was tested, and the “hERG current change (%, negative = inhibition) at 1uM” value was 18.9%. In the case of COc1nc(-c2ccccc2)cc(-c2ccccc2)n1, the “hERG current change (%, negative = inhibition) at 1uM” value was -3.93%. For CC(Sc1cccc(C(F)(F)F)c1)C(=O)NC(N)=O (stereo not drawn), the “hERG current change (%, negative = inhibition) at 1uM” value was 13.9%. With CCOc1ccc(NC(=O)c2ccc3c(=O)n4c(nc3c2)CCCCC4)cc1 the “hERG current change (%, negative = inhibition) at 1uM” value was 14.8%. In the case of O=C(c1cc2c(s1)CCCC2)N1CCC2(CC1)OCCO2, the “hERG current change (%, negative = inhibition) at 1uM” value was 2.7%. For COC(=O)c1sccc1-n1cccc1C(=O)C(=O)N1CCCCC1, the “hERG current change (%, negative = inhibition) at 1uM” value was 6.44%. For COc1ccc(C(=O)Nc2ccccc2C(=O)Nc2ccncc2)cc1, the “hERG current change (%, negative = inhibition) at 1uM” value was 12.4%. In the case of Cc1ccc(Nc2nnc(SCC(=O)N(C)C3CCS(=O)(=O)C3)s2)cc1 (stereo not drawn), the “hERG current change (%, negative = inhibition) at 1uM” value was 9.88%. In the case of COc1cccc(-n2c(N)c(-c3nc4ccccc4[nH]3)sc2=S)c1, the “hERG current change (%, negative = inhibition) at 1uM” value was 15.7%. In the case of Cc1cccc(N2CCN(C(=O)c3nn(C)c4c3CS(=O)(=O)c3ccccc3-4)CC2C)c1 (stereo not drawn), the “hERG current change (%, negative = inhibition) at 1uM” value was 8.87%. With CC(Sc1nc(N2CCOCC2)c2c(c1C#N)CC(C)(C)OC2)C(=O)O (stereo not drawn) the “hERG current change (%, negative = inhibition) at 1uM” value was 16%. In the case of Cc1cc(C)cc(C(=O)Oc2cc(C)[nH]c(=O)c2[N+](=O)[O-])c1, the “hERG current change (%, negative = inhibition) at 1uM” value was 17%. With CCCCOc1ccc(Nc2cc(Cl)ccc2C(=O)O)cn1 the “hERG current change (%, negative = inhibition) at 1uM” value was 15.6%. In the case of C=CCn1c(CNC(=O)c2cccs2)n[nH]c1=S, the “hERG current change (%, negative = inhibition) at 1uM” value was 8.99%. COc1ccc(Nc2nc(NCc3ccco3)nc(N)c2[N+](=O)[O-])cc1 was tested, and the “hERG current change (%, negative = inhibition) at 1uM” value was 18%. In the case of Cc1cc(Br)ccc1NC(=O)CN(C)C(=O)C1CCN(C(=O)c2ccc(F)cc2)CC1, the “hERG current change (%, negative = inhibition) at 1uM” value was -27.8%. With CC1(C)CC(=O)C=C(C(=O)N2CCCC(CCC(=O)NCc3ccccc3F)C2)O1 (stereo not drawn) the “hERG current change (%, negative = inhibition) at 1uM” value was 9.41%. In the case of O=C(Cc1ccc(-n2c(=S)[nH]c3ccccc3c2=O)cc1)N1CCN(c2ccccc2)CC1, the “hERG current change (%, negative = inhibition) at 1uM” value was 11.7%. With COc1ccc(N2C(=O)c3cc4ccccc4cc3C2=O)cc1 the “hERG current change (%, negative = inhibition) at 1uM” value was 8.97%.
